The campaign covered roughly 150,000 compounds. About 540 (0.36%) showed an effect of 50% or more. Some of the results follow.
test system: Plasmodium falciparum; assay: Primary screen in NF54 nanoGlo assay, in single point, at 2uM, 72h; a lower Z score goes with more inhibition; assay type: functional, Erythrocyte; settings: timepoint 72 hour

Compound	% Inhibition [%]	Z score
COc1ccccc1/C=C/c1cc(C)no1	0	0.01
CC(C)C(C)(C#N)NC(=O)CN1CCCC(O)C1 (stereo not drawn)	-9	1.43
C[C@H](Oc1ccccc1-c1ccccc1)C(=O)N1CCc2ccccc2C1	-3	0.36
O=C(NCc1ccc(-c2nnco2)cc1)c1ccccc1C1CCC1	-7	0.81
COc1cc(OC)c(CN2CCN(CC3CC3)CC2)c(C(=O)O)c1	-2	0.26
Cn1ncnc1CCNC(=O)N[C@H](c1ccc(Cl)cc1)C1CCC1	-7	0.75
COc1ccc2c(c1)CCc1c(C(=O)N3CCC(Cc4nncn4CC4CC4)CC3)n[nH]c1-2	-14	1.64
Cc1nn(C)c2nc(N3CCCN4CCC[C@H]4C3)sc12	-5	0.79
CS(=O)(=O)c1cccc(-c2nnc(NC(=O)C3=COCCO3)o2)c1	-6	0.72
C[C@@H](CN1CCCC1=O)NCc1c[nH]nc1C(C)(C)C	0	0.06
Cc1ccc(C(=O)N2CCCN(c3nc(C4CCOCC4)nc4c3cnn4-c3ccccc3)CC2)cc1	-2	0.44
Cc1cc(C)cc(OCc2nc(C(=O)NCC(C)C)cs2)c1	5	-0.79
COc1ccc(-c2c(C(=O)N3CCN(C4CCN(C)CC4)CC3)nc3ccccn23)cc1	-1	0.09
COc1cc(C)cnc1C(=O)N1CCc2cc(Cl)ccc21	-14	1.2
Cc1noc(C)c1C(=O)Nc1sc2c(c1C(N)=O)CCC2	11	-1.58
O=C(C1=Cc2ccccc2OC1)N1CCCCC1	-22	2.02
CC(=O)N(Cc1cccnc1)[C@H]1CCCN(C(=O)Nc2ccc(C)cc2C)C1	-1	0.1
Cc1cc(C(=O)NCc2cccnc2N2CCC[C@H](O)C2)no1	-12	1.76
O=C(CCc1nc(-c2nnc[nH]2)no1)N1CCC(c2ccsc2)CC1	-13	1.84
COc1cccc(OC2CN(CCC(C)C)C2)c1	7	-0.94
CCCn1nccc1-c1ccc(CS(C)(=O)=O)cn1	-1	0.1

Compound	% Inhibition [%]	Z score
N[C@@H](Cc1ccsc1Cl)C(=O)O	-12	1.19
CC(C)c1csc(C(=O)N(CC(F)F)C2CC2)n1	1	-0.12
N#Cc1ccc(N[C@H]2CCN(CC(F)(F)F)C2)nc1	4	-0.82
CN(C(=O)c1ccc2c(c1)OCCO2)C1(C#N)CCC1	-13	2.43
NC(=O)c1cccnc1N1CCC[C@](Cc2ccccc2F)(C(=O)O)C1	5	-0.66
Cc1cc([C@H](C)NCCc2ccnn2C)c(C)o1	-2	0.35
Cc1ccc(NC(=O)C[C@H]2COc3ccccc3NC2=O)cc1C	-7	0.84
O=C(Nc1nc(Cc2ccccc2)cs1)C1CCOCC1	33	-0.97
CC[C@@H](c1ccncc1)N(C)C(=O)NCCOc1ccc(F)c(F)c1	-7	0.66
Cc1ccc(-c2nc3n(CC(=O)Nc4ccc(F)cc4)c(C)c(Cc4ccccc4)c(=O)n3n2)cc1	-1	0.18
O=C(N[C@@H](CO)[C@@H](O)c1ccccc1)c1cc(-c2ccc(O)cc2)n[nH]1	-8	1.51
CCC1(CC)NC(=O)N(CC(=O)N(Cc2cccnc2)C(C)C)C1=O	-9	1.06
Cc1cc(C(=O)N[C@@H](C)c2ccccn2)on1	1	-0.08
COc1cc2c(cc1CN1CCC[C@H](CS(C)(=O)=O)C1)OCCCO2	-9	1.71
Cc1cc(Nc2ccc3c(ccn3CCO)c2)n2ncnc2n1	1	-0.25
CO[C@@](C)(CS(=O)(=O)NCC(C)(C)CCCO)c1ccccc1	-4	0.6
CCCC1CCCCC1NC(=O)N(C)C(C)CS(=O)(=O)CC (stereo not drawn)	0	-0.02
CCCNC(=O)N1CC[C@H](CC(=O)N(C)Cc2ccccc2)C1	-1	0.16
O=C(N[C@@H](Cc1ccccc1)C(=O)N1CCCCCC1)c1ccccc1	0	-0.03
COc1ccc(CCc2n[nH]c(NC(=O)c3nc(C)sc3C)n2)cc1	20	-2.91
Cc1ccsc1CN(Cc1ccc(F)cc1)C(=O)CN(C1CCCCC1)S(=O)(=O)c1ccc2ccccc2c1	-7	1.4

Compound	% Inhibition [%]	Z score
COCCCN1C(=O)CC[C@@H]2CN(C(=O)c3ccc(Cl)cc3O)CC[C@@H]21	11	-1.4
COc1ccc(CC(=O)N2CCc3nc(N4CCN(c5ccc(F)cc5)CC4)nc(N(C)C)c3C2)cc1	-12	1.59
COc1ccc(CN2CCc3ccccc3C2)cc1OC[C@@H](O)CN1CCCC1	10	-1.44
NC(=O)c1cccc(CCN[C@H]2CCC23CCCC3)c1	-2	0.23
CC[C@H](NC(=O)COCC(F)(F)C(F)F)c1cc(C)ccn1	2	-0.42
Cc1ccc(C)c(N2CCN(/C(=N/c3ccc(C(=O)O)cc3)NCc3ccccc3)CC2)c1	-16	1.58
CCO[C@H]1C[C@H](NC(=O)Nc2ccc(COC)c(C#N)c2)C1	-12	2.27
CC(C)CN(CC(C)C)S(=O)(=O)N1CCC(C(=O)NC2CCCCCC2)CC1	-8	1.29
Cc1cc(C(=O)NC2CCCCCC2)nn1C	-3	0.43
N#Cc1ccc(Br)cc1N1C[C@@H]2CC[C@H](O)[C@@H]2C1	-5	0.99
CC1=CCCC(C)C1CNCc1nccn1C(F)F (stereo not drawn)	5	-0.62
COc1ccccc1C(=O)N[C@H]1CCCc2c1[nH]c1c(Cl)cccc21	9	-1.1
CC(C)CN1C(=O)CC[C@@H](C(=O)Nc2ccc(N3CCOCC3)cc2)[C@H]1C	-15	2
Cc1ccc(C(=O)NC2c3ccccc3CCC2n2ccnc2)c(=O)[nH]1 (stereo not drawn)	30	-0.01
CN1CCC(CNc2cc([C@H]3CCOC3)ncn2)(c2ccccc2)CC1	-9	1.3
CC(C)CN1C(=O)N(CCCc2cccnc2)C(=O)C12CCNCC2	-12	1.6
COc1ccc2c(c1)/C(=C1/SC(C(C)=O)=C(c3ccccc3)S1)C(=S)C(C)(C)N2	-5	0.65
CC(C)Cc1cc(-c2nccn2-c2ccc(C(N)=O)cc2)n[nH]1	-10	1.85
O=C1CCN(c2nc(-c3ccc(Cl)cc3)nc3c2CNC3)CCN1	-14	1.92
CC1CC(C)CN(C(C)(C)CNC(=O)CC2(O)CCCCC2)C1 (stereo not drawn)	-5	0.59
Cc1ccccc1S(=O)(=O)N1CCC(n2cnc3ccc(Cl)cc3c2=O)CC1	-10	1.12

Compound	% Inhibition [%]	Z score
CCN(CC)CCN(C)C(=O)c1cnn(-c2nccc(-c3ccc(OC)c(F)c3)n2)c1C1CC1	5	-0.54
CC(=O)c1ccc(S(=O)(=O)N[C@H]2CCN(c3ccc(C)c(C)c3)C2=O)cc1	2	-0.35
CC(=O)N(C)C[C@H]1CCN(S(=O)(=O)c2ccccc2Cl)C[C@H]1N(C)C	-12	1.54
CC(=O)Nc1ccc(S(=O)(=O)NCCCc2cc3ccccc3o2)cc1	-2	0.3
O=C(NC[C@H]1CC[C@@H](CO)O1)Nc1nc(CC(F)(F)F)cs1	1	-0.08
CCn1ccc([C@H](C)NC(=O)c2cc(-c3ccc(C)cc3)nc3c2c(C)nn3CC)n1	32	-3.63
O=C1CNC(=O)N1Cc1nc(-c2ccncc2)no1	-3	0.58
N#Cc1cc(F)c(N2CCC(NC(=O)CC3CCCC3)CC2)c(F)c1	-6	0.85
O=S(=O)(c1cccc2nsnc12)N1CC[C@H](c2ccc3c(c2)OCO3)C1	2	-0.3
CCOC(=O)Nc1ccc2c(c1)N(C(=O)CN1CCCCC1)c1ccccc1C=C2	-12	2.35
O[C@H]1CCCN(c2cccc(C(F)(F)F)n2)CC1	-3	0.36
C[N+]1(C/C=C/C(O)(c2ccccc2)c2ccccc2)CCCCC1	12	-1.05
CCc1cccc(NC(=O)CN2CC[S+]([O-])CC2)c1	-10	1.26
O=C(COCC1CC1)Nc1ncc2[nH]ccc2c1Br	-3	0.34
Cc1nc(N)sc1-c1cc([C@@H]2CC=CCC2)c(C#N)c(N)n1	3	-0.5
Cc1cc(N)n(CC(=O)N[C@H](c2cccs2)C2CCCCC2)n1	-9	1.08
O=C(Cn1nc(-c2ccccc2)cc(NC(=O)c2ccccc2)c1=O)Nc1ccccc1Cl	-8	1.3
C[C@@H](CNC1(CO)CC1)c1cccc(Cl)c1	-15	2.21
Cc1ccc(Oc2nc(N3CCC(C)CC3)nc3c2CN(C(=O)Nc2ccc(C(C)C)cc2)CC3)cc1	2	-0.36
Cc1cc(S(=O)(=O)NC(=O)Cc2c(C)cccc2C)c(C)o1	5	-0.46
Cc1cc(N2CC[C@H](NCCC(C)C)C2=O)n(C)n1	2	-0.24

— ChEMBL document CHEMBL4888484, “Replenishing the malaria drug discovery pipeline: Screening and hit evaluation of the MMV Hit Generation Library 1 (HGL1) against asexual blood stage Plasmodium falciparum ,using a nano luciferase reporter read-out” (2022)
